Test results as given in paper PMC4336329 (PLoS ONE, 2015).
Screen size: about 310,000 compounds; about 14,000 (4.5%) showed an effect of 50% or more. The effect is printed as a negative number. This is one part of the list.

Each compound was assayed against human ether-à-go-go-related gene (hERG) potassium channel (human, UniProt Q12809) (assay: primary screen, population patch clamp on CHO cells stably expressing hERG).
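Note: peak tail current of the secondary pulse compared with the same well before compound.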

human ether-à-go-go-related gene (hERG) potassium channel, sequence (Q12809 whole entry, looked up): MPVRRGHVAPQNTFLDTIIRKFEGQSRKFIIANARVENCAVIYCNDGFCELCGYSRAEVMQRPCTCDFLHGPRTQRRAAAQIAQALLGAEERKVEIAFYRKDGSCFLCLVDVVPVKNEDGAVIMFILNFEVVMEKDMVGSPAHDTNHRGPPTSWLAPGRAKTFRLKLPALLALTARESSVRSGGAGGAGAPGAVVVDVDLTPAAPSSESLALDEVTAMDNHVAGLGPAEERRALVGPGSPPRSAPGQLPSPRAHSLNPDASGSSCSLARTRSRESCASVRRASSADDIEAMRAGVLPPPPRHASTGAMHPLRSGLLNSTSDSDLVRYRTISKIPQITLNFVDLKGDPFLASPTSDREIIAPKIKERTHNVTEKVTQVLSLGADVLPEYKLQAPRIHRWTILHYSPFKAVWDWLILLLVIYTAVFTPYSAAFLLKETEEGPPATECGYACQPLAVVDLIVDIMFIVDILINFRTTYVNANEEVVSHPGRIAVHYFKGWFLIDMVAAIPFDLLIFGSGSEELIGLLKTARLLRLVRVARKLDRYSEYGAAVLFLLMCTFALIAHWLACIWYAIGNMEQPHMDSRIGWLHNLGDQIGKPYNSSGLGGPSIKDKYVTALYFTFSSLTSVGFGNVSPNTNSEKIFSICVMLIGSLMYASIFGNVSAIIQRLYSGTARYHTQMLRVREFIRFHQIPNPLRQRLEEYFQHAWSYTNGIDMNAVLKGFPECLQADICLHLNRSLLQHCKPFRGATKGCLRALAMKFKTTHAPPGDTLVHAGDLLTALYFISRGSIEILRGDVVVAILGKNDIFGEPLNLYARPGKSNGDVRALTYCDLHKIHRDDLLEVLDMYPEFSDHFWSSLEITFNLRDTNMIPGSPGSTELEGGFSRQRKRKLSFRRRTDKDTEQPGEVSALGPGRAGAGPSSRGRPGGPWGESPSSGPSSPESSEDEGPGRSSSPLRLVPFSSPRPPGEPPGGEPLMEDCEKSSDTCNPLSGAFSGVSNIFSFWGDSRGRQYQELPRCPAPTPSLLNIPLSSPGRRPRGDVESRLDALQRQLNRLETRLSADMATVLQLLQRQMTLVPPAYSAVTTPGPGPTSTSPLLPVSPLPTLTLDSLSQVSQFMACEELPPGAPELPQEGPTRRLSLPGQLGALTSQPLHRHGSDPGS

Q: `COCCNC(=O)C1Cc2c(ccc3ccccc23)O1` (stereo not shown) was tested. Which “hERG current change (%, negative = inhibition) at 10uM” value did it give?
A: 6.99%

Q: `CCOC(=O)C(NCCc1ccccc1)(NC(=O)CC)C(F)(F)F` (stereo not shown) was tested. Which “hERG current change (%, negative = inhibition) at 10uM” value did it give?
A: -18%

Q: `CCCC(=O)N(CCN1CCOCC1)c1nc2cc(C)c(C)cc2s1.Cl` was tested. Which “hERG current change (%, negative = inhibition) at 10uM” value did it give?
A: 15%

Q: For `Cc1ccc(NC(=O)c2ccncc2)cc1S(=O)(=O)N(C)C`, which “hERG current change (%, negative = inhibition) at 10uM” value is on record?
A: -1.29%

Q: With `CCOC(=O)c1sc(NCc2ccco2)c(-c2nc3ccccc3s2)c1N` as the compound, how does the “hERG current change (%, negative = inhibition) at 10uM” value read?
A: 7.38%

Q: With `CC1CCN(C(=O)Cn2nnc(-c3ccc([N+](=O)[O-])cc3)n2)CC1` as the compound, how does the “hERG current change (%, negative = inhibition) at 10uM” value read?
A: -39.1%

Q: With `Cc1nc2ccc(NC(=O)NCCCO)cc2s1` as the compound, how does the “hERG current change (%, negative = inhibition) at 10uM” value read?
A: -0.139%

Q: For `O=C(CCn1nnnc1CN1CCOCC1)N1CCC(c2cccc(Cl)c2)C1` (stereo not shown), which “hERG current change (%, negative = inhibition) at 10uM” value is on record?
A: -7.7%

Q: With `Cc1cc(C)c(C(=O)N2CCC3(CC2)OCCO3)c(C)c1` as the compound, how does the “hERG current change (%, negative = inhibition) at 10uM” value read?
A: 19.6%

Q: How did the “hERG current change (%, negative = inhibition) at 10uM” value turn out when `CCN(CC)CC.COc1cccc(-n2c(=S)sc3c(=O)n(-c4ccccc4OC)c(=S)[nH]c32)c1` was run?
A: 24.7%

Q: With `COC(=O)CN1C(=O)COc2ccc(S(=O)(=O)NCc3ccc(Cl)cc3)cc21` as the compound, how does the “hERG current change (%, negative = inhibition) at 10uM” value read?
A: -30.4%

Q: Which “hERG current change (%, negative = inhibition) at 10uM” value does the source give for `C/C=C/c1ccc(OCC(=O)Nc2ccc(C(N)=O)cc2)c(OC)c1` here?
A: 7.23%

Q: `COc1ccc(Nc2nc(CC(C)=O)ns2)cc1OC` was tested. Which “hERG current change (%, negative = inhibition) at 10uM” value did it give?
A: 3.86%

Q: With `N#C/C(=C/c1ccc(N2CCCC2)c([N+](=O)[O-])c1)c1nc2ccccc2[nH]1` as the compound, how does the “hERG current change (%, negative = inhibition) at 10uM” value read?
A: -3.43%

Q: Which “hERG current change (%, negative = inhibition) at 10uM” value does the source give for `NC(=O)c1cc(S(=O)(=O)NCc2cccs2)cs1` here?
A: 9.44%

Q: Which “hERG current change (%, negative = inhibition) at 10uM” value does the source give for `N#CCCN1CCC(NC(=O)OCc2ccccc2)CCC1=O` (stereo not shown) here?
A: -24.9%

Q: How did the “hERG current change (%, negative = inhibition) at 10uM” value turn out when `CSCCC(NC(=O)c1ccccc1Cl)C(=O)NC1CCN(Cc2ccccc2)CC1` (stereo not shown) was run?
A: -50.1%

Q: How did the “hERG current change (%, negative = inhibition) at 10uM” value turn out when `CCCOc1ccc(N2C(=O)CC(NCCCN3CCC(C(N)=O)CC3)C2=O)cc1` (stereo not shown) was run?
A: -12.1%

Q: How did the “hERG current change (%, negative = inhibition) at 10uM” value turn out when `O=C(COc1ccc(S(=O)(=O)NC2CCCCC2)cc1)NCC1CCCO1` (stereo not shown) was run?
A: 7.21%

Q: `Cc1c(O)cc2n(c1=O)-c1ccc(Cl)cc1C2(C)C` was tested. Which “hERG current change (%, negative = inhibition) at 10uM” value did it give?
A: 10.2%

Q: `CCc1ccc2[nH]c(=O)c(C(c3nnnn3Cc3ccco3)N3CCC(C)CC3)cc2c1` (stereo not shown) was tested. Which “hERG current change (%, negative = inhibition) at 10uM” value did it give?
A: -4.03%

Q: Which “hERG current change (%, negative = inhibition) at 10uM” value does the source give for `CCN(CC)S(=O)(=O)c1ccc(N2CC(C(=O)N3CCOCC3)CC2=O)cc1` (stereo not shown) here?
A: -7.55%

Q: Which “hERG current change (%, negative = inhibition) at 10uM” value does the source give for `Cc1cccc(NC(=O)C(=O)NCC2CCCN2S(=O)(=O)c2cccs2)c1C` (stereo not shown) here?
A: -21.7%

Q: For `O=C(CSc1ccc(-c2cccnc2)nn1)Nc1ccc(F)cc1`, which “hERG current change (%, negative = inhibition) at 10uM” value is on record?
A: -40.3%

Q: For `CC1CCCC(NCC(O)COC(c2ccc(F)cc2)c2ccc(F)cc2)C1C` (stereo not shown), which “hERG current change (%, negative = inhibition) at 10uM” value is on record?
A: -71.6%

Q: Which “hERG current change (%, negative = inhibition) at 10uM” value does the source give for `Cc1ccc(S(=O)(=O)NCCCCCC(=O)Nc2cccc(C)c2)cc1` here?
A: -39.2%

Q: Which “hERG current change (%, negative = inhibition) at 10uM” value does the source give for `O=C(Cn1cnc2c(nnn2-c2ccccc2)c1=O)NCc1ccco1` here?
A: -24.1%

Q: For `CCCC(=O)NC(c1ccc(Cl)cc1Cl)c1ccc2cccnc2c1O` (stereo not shown), which “hERG current change (%, negative = inhibition) at 10uM” value is on record?
A: 0.094%

Q: For `COc1ccccc1C1(O)CCN(CC(=O)Nc2c(C)nn(C)c2C)CC1`, which “hERG current change (%, negative = inhibition) at 10uM” value is on record?
A: 11.3%

Q: How did the “hERG current change (%, negative = inhibition) at 10uM” value turn out when `Cc1cc(C(=O)Cn2nnc3ccccc3c2=O)c(C)n1Cc1cccs1` was run?
A: -12.4%

Q: How did the “hERG current change (%, negative = inhibition) at 10uM” value turn out when `COc1ccc(C(=O)N2CCC(c3ccccc3)CC2)c(OC)c1OC` was run?
A: -9.01%

Q: With `COc1ccc(N=Cc2nc(-c3ccccc3)oc2OC(=O)c2ccccc2)cc1` as the compound, how does the “hERG current change (%, negative = inhibition) at 10uM” value read?
A: 12.3%

Q: Which “hERG current change (%, negative = inhibition) at 10uM” value does the source give for `Cc1ccc(/C=C/C(=O)Nc2ccc(S(=O)(=O)Nc3cc(C)nc(C)n3)cc2)cc1` here?
A: 21.2%

Q: For `Cc1cc(C)c(OCC(=O)Nc2nnn(C)n2)c(Br)c1`, which “hERG current change (%, negative = inhibition) at 10uM” value is on record?
A: 6.77%

Q: For `COc1ccc(S(=O)(=O)N2CCC(C(=O)NC3(C)CCS(=O)(=O)C3)CC2)cc1OC` (stereo not shown), which “hERG current change (%, negative = inhibition) at 10uM” value is on record?
A: 7.87%

Q: With `Cn1cnc(S(=O)(=O)NC2CCN(Cc3c(F)cccc3Cl)CC2)c1` as the compound, how does the “hERG current change (%, negative = inhibition) at 10uM” value read?
A: -18.6%

Q: `Cc1cc(C)c2c(NC(=S)NC(=O)c3ccccc3)nn(C)c2n1` was tested. Which “hERG current change (%, negative = inhibition) at 10uM” value did it give?
A: 13.6%

Q: With `COc1ccc(CNC(=O)COc2ccc([N+](=O)[O-])cc2)cc1` as the compound, how does the “hERG current change (%, negative = inhibition) at 10uM” value read?
A: -64.5%

Q: For `O=C1CC(c2ccco2)CC(O)=C1C=NCC1CCNCC1` (stereo not shown), which “hERG current change (%, negative = inhibition) at 10uM” value is on record?
A: -3.84%

Q: `CC(C)(c1ccc(O)cc1)c1ccc(O)cc1` was tested. Which “hERG current change (%, negative = inhibition) at 10uM” value did it give?
A: 21.4%

Q: Which “hERG current change (%, negative = inhibition) at 10uM” value does the source give for `O=C(N/C=C/n1cnc2cc(C(F)(F)F)ccc21)c1ccccc1F` here?
A: -11.7%

Q: Which “hERG current change (%, negative = inhibition) at 10uM” value does the source give for `O=C(CSc1nnnn1-c1ccccc1)N1CCc2ccccc21` here?
A: 7.32%

Q: With `COc1ccc(NC(=O)CN2CCC(NC(=O)c3ccc(OC)cc3)CC2)cc1` as the compound, how does the “hERG current change (%, negative = inhibition) at 10uM” value read?
A: -51.1%

Q: With `c1ccc(Oc2cc(-n3cncn3)ncn2)cc1` as the compound, how does the “hERG current change (%, negative = inhibition) at 10uM” value read?
A: 7.95%

Q: `CCOC(=O)C1=C(C)N=C2SCCC(=O)N2C1c1ccc(OC)cc1` (stereo not shown) was tested. Which “hERG current change (%, negative = inhibition) at 10uM” value did it give?
A: 25.4%

Q: `COc1cccc(C(C)NC(=O)c2c(F)cccc2Cl)c1` (stereo not shown) was tested. Which “hERG current change (%, negative = inhibition) at 10uM” value did it give?
A: -4.69%

Q: For `CCOc1ccc(N(CC(=O)NCc2ccco2)S(C)(=O)=O)cc1`, which “hERG current change (%, negative = inhibition) at 10uM” value is on record?
A: 16%

Q: `C=CCN1C=C/C(=C\C=C(C#N)C#N)c2ccccc21` was tested. Which “hERG current change (%, negative = inhibition) at 10uM” value did it give?
A: -19.9%

Q: How did the “hERG current change (%, negative = inhibition) at 10uM” value turn out when `Br.CCSC(=Nc1ccccc1)N1CCOCC1` was run?
A: 6.45%

Q: `COc1cc(C(C)=O)ccc1OCC(=O)c1cc(C)n(C2CC2)c1C` was tested. Which “hERG current change (%, negative = inhibition) at 10uM” value did it give?
A: -0.852%

Q: How did the “hERG current change (%, negative = inhibition) at 10uM” value turn out when `Cc1ccc2c(c1)N(CC(=O)NCc1cccs1)C(=O)CO2` was run?
A: 5.4%

Q: With `CCOC(=O)N1CCN(C(=O)C2CCN(C(=O)c3ccc([N+](=O)[O-])cc3)CC2)CC1` as the compound, how does the “hERG current change (%, negative = inhibition) at 10uM” value read?
A: -72%

Q: For `CC(Oc1ccc([N+](=O)[O-])cc1Cl)C(=O)Nc1ccc(C(N)=O)cc1` (stereo not shown), which “hERG current change (%, negative = inhibition) at 10uM” value is on record?
A: 7.04%

Q: How did the “hERG current change (%, negative = inhibition) at 10uM” value turn out when `O=C(O)c1cc(O)ccc1NC(=O)C1CCCO1` (stereo not shown) was run?
A: -0.924%

Q: `CN(C)c1ccc(/C=N\NC(=O)c2csnn2)cc1` was tested. Which “hERG current change (%, negative = inhibition) at 10uM” value did it give?
A: 12.9%

Q: For `N#Cc1ccsc1NC(=O)CSc1ncn[nH]1`, which “hERG current change (%, negative = inhibition) at 10uM” value is on record?
A: -0.2%

Q: How did the “hERG current change (%, negative = inhibition) at 10uM” value turn out when `CNC(=O)c1ccc(-n2cccn2)nc1` was run?
A: 3.69%

Q: For `C/C(Cc1ccccc1)=N\NC(=O)CNC(=O)c1ccc2c(c1)OCCO2`, which “hERG current change (%, negative = inhibition) at 10uM” value is on record?
A: 8.19%
